Where a name gives a salt, the structure may show the parent alone. The list shows a part of the results. Many values rest on one well or one pass, so single values are uncertain.
Test system: MDA-468
Experiment: cell viability relative to vehicle (% of vehicle); basal-like triple-negative breast cancer lines; higher = less cytotoxic
Details: 10 µM; 72 h
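Further: stably firefly luciferase-GFP labeled cells in 96-well plates, viability read as luciferase photon flux after d-luciferin addition, treated wells normalized to vehicle wells, single-dose high-throughput screen.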

| SMILES | cell viability |
| --- | --- |
| COc1ccc2c(c1)c(CC(=O)O)c(C)n2C(=O)c1ccc(Cl)cc1 [Indomethacin] | 102 |
| CCCCCN(C)CCC(O)(P(=O)([O-])O)P(=O)(O)O.O.[Na+] [Ibandronate sodium] | 105 |
| Cc1ccc(NC(=O)c2ccc(CN3CCN(C)CC3)cc2)cc1Nc1nc(-c2cccnc2)cs1 [Masitinib (AB1010)] | 87.2 |
| Cl.Nc1ccn(C2OC(CO)C(O)C2O)c(=O)n1 (stereo not drawn) [Cytarabine hydrochloride] | 102 |
| CNCC(O)c1ccc(O)c(O)c1.Cl (stereo not drawn) [Epinephrine HCl] | 191 |
| CCOc1cc(N)c(Cl)cc1C(=O)NCC1CN(Cc2ccc(F)cc2)CCO1.O=C(O)CC(O)(CC(=O)O)C(=O)O (stereo not drawn) [Mosapride Citrate] | 107 |
| Cc1cccc(Nc2ccncc2S(=O)(=O)NC(=O)NC(C)C)c1 [Torsemide] | 85 |

Test system: SUM-149
Experiment: as above
Details: 10 µM; 72 h

| SMILES | cell viability |
| --- | --- |
| CN(C)CCC=C1c2ccccc2Sc2ccc(Cl)cc21 [Chlorprothixene] | 98 |
| Cc1ccccc1C(OCCN(C)C)c1ccccc1.O=C(O)CC(O)(CC(=O)O)C(=O)O (stereo not drawn) [Orphenadrine Citrate] | 108 |
| CS(=O)(=O)c1ccc(C(=O)Nc2ccc(Cl)c(-c3ccccn3)c2)c(Cl)c1 [GDC-0449 (Vismodegib)] | 114 |
| CCN(CC)CCOC(=O)c1ccc(N)cc1 [Procaine] | 114 |
| CS(=O)(=O)O.N#CC1(c2ccc(NC(=O)c3cccnc3NCc3ccncc3)cc2)CCCC1 [Apatinib] | 133 |
| OCC1OC(Oc2ccc(O)cc2)C(O)C(O)C1O (stereo not drawn) [Arbutin] | 104 |
| O=C1NC(=O)[C@@H](c2c[nH]c3ccccc23)[C@H]1c1cn2c3c(cccc13)CCC2 [Tivantinib (ARQ 197)] | 113 |
| OCC1OC(c2ccc(Cl)c(Cc3ccc(OC4CCOC4)cc3)c2)C(O)C(O)C1O (stereo not drawn) | 109 |
| Cl.O=C1Cc2cc(CCN3CCN(c4nsc5ccccc45)CC3)c(Cl)cc2N1 [Ziprasidone HCl] | 131 |
| COc1cc(NC(C)CCCN)c2ncccc2c1.O=P(O)(O)O.O=P(O)(O)O (stereo not drawn) [Primaquine Diphosphate] | 106 |
| Nc1cc(C(Cl)=C(Cl)Cl)c(S(N)(=O)=O)cc1S(N)(=O)=O [Clorsulon] | 137 |
| COC(=O)C1=C(C)NC(C)=C(C(=O)OC)C1c1ccccc1[N+](=O)[O-] [Nifedipine] | 128 |
| O=NN(CCCl)C(=O)NCCCl [Carmustine] | 121 |
| Cn1c(=O)c2[nH]cnc2n(C)c1=O [Theophylline] | 80.6 |
| CCC1=CC2CN(C1)Cc1c([nH]c3ccccc13)C(C(=O)OC)(c1cc3c(cc1OC)N(C)C1C(O)(C(=O)OC)C(OC(C)=O)C4(CC)C=CCN5CCC31C54)C2 (stereo not drawn) [Vinorelbine] | 77.9 |
| CCCNC1CCc2nc(N)sc2C1 (stereo not drawn) [Pramipexole] | 102 |
| CCCCC(=O)OC1CCC2C3CCc4cc(O)ccc4C3CCC12C (stereo not drawn) [Estradiol valerate] | 93.4 |
| Nc1nc(N)c2nc(-c3ccccc3)c(N)nc2n1 [Triamterene] | 126 |
| Cc1ccsc1C(=CCCN1CCC[C@@H](C(=O)O)C1)c1sccc1C [Tiagabine hydrochloride] | 131 |
| Cc1ccc(S(=O)(=O)NC(=O)NN2CC3CCCC3C2)cc1 (stereo not drawn) [Gliclazide] | 107 |
| O=C(O)COCCN1CCN(C(c2ccccc2)c2ccc(Cl)cc2)CC1 (stereo not drawn) [Cetirizine] | 139 |
| CC1(C)SC2C(NC(=O)C(NC(=O)N3CCN(S(C)(=O)=O)C3=O)c3ccccc3)C(=O)N2C1C(=O)O.[Na] (stereo not drawn) [Mezlocillin Sodium] | 110 |
| Nc1nc(=O)c2ncn(CCC(CO)CO)c2[nH]1 [Penciclovir] | 110 |
| O=C(CCCCCCC(=O)Nc1ccccc1)NO [Vorinostat (SAHA, MK0683)] | 6.98 |
| CC1C=CC=CC=CC=CC=CC=CC=CC(OC2OC(C)C(O)C(N)C2O)CC2OC(O)(CC(O)CC(O)C(O)CCC(O)CC(O)CC(=O)OC(C)C(C)C1O)CC(O)C2C(=O)O (stereo not drawn) [Amphotericin B] | 112 |
| CC(C)OC(=O)OCOP(=O)(COC(C)Cn1cnc2c(N)ncnc21)OCOC(=O)OC(C)C.O=C(O)C=CC(=O)O (stereo not drawn) [Tenofovir Disoproxil Fumarate] | 112 |
